Among all 48,000 compounds or so, about 1,200 (2.5%) were called active. About 2% were inconclusive and are not listed.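 How the source made its calls: active means activation of at least 60% and not above a set upper limit (about 1 call in 100 departs from these limits); inconclusive means activation of 40% to 60%, or above that upper limit; inactive means activation under 40%.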 The list shows a part of the results.
Molecular target: Probable G-protein coupled receptor 32 (Homo sapiens) (UniProt O75388)
Test: qHTS for Agonists of Human Resolvin D1 Receptor DRV1; further: 0% is about no effect
Conditions: CHO-K1 GPR32 beta-arrestin PathHunter luminescence, 90 min; at 76.9 µM; active compounds read high; zero percent set by DMSO-only wells
Procedure, shortened: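 Readings come from a cell-based beta-arrestin complementation format: CHO-K1 GPR32 stable cells (2,500/well) treated 90 min with compounds, then beta-Gal substrate added for 1 h before chemiluminescence imaging.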

UniProt O75388, sequence (O75388 whole entry, looked up): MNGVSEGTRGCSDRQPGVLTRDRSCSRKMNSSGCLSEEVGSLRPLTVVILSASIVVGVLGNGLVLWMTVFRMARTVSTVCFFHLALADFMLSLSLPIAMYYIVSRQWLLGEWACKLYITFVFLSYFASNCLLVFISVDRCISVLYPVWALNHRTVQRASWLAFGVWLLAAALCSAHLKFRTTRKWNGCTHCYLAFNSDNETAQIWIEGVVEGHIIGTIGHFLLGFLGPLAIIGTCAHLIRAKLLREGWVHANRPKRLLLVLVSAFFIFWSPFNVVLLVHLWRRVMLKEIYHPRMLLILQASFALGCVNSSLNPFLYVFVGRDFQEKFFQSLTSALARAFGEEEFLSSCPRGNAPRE

activation, inactive:
O=C(NCC(c1cccnc1)N1CCOCC1)C(=O)Nc1ccc(Cl)cc1 (stereo not drawn) 5.25%
CCOC(=O)c1c(C)oc2nc(C)nc(NCC3CCN(Cc4ccccc4C)CC3)c12 -4.7%
Cc1ccc2nc(-c3cccc(NC(=O)c4cccc5c(Cl)cccc45)c3)oc2c1 11.5%
Cc1ccc2c(c1)-c1c(cnn1CC(=O)N1CCN(c3cc(C)ccc3C)CC1)CO2 -21.9%
Cc1ccccc1S(=O)(=O)Cc1ccc(C(=O)NCCc2ccccc2)o1 -1.74%
CN(CCCNC(=O)Cn1ncc2c([nH]c3ccccc32)c1=O)Cc1ccccc1 -17.8%
Cc1ccccc1CNC(=O)C(=O)NCC(c1ccc2c(c1)OCO2)N1CCOCC1 (stereo not drawn) -10.6%
CC1CCN(c2csc3ccc(F)cc3c2=O)CC1 4.17%
CC(C)N1CCc2c(sc(NC(=O)c3ccc(S(=O)(=O)N(C)C4CCCCC4)cc3)c2C(N)=O)C1 -50.2%
O=C(NCc1ccc(Cl)cc1)c1ccc(CNS(=O)(=O)c2ccc(F)cc2)cc1 7.49%
COCCc1nn2c(=O)cc(COC(=O)c3ccco3)nc2s1 33%
CC(=O)c1ccc(NC(=O)c2cc(S(=O)(=O)N3CCOCC3)ccc2C)cc1 12.1%
CCC(Sc1nc2cc(OC)c(OC)cc2c(=O)n1Cc1ccc(OC)cc1)C(=O)NCCOC (stereo not drawn) -15.4%
Cc1cc(N2CCN(c3ccccc3)CC2)n2cnnc2n1 7.53%
CCN1CCN(C(=O)c2ccc3c(c2)N(Cc2ccccc2)C(=O)c2ccccc2S3(=O)=O)CC1 -28.3%
CCCN1CCN(CCCNC(=O)c2ccc3c(c2)sc2nc(-c4ccc(OCC)cc4)cn23)CC1 -0.789%
CCOc1ccc(-c2cn3c(n2)sc2cc(C(=O)N4CCCC(C)C4)ccc23)cc1 (stereo not drawn) -2.63%
Cc1nc(-c2ccc(F)cc2)sc1CCNC(=O)c1ccc(OC(C)C)cc1 -10.3%
COc1ccccc1CNC(=O)C1CCN(C2=NS(=O)(=O)C(c3ccc(C)c(C)c3)=C2C)CC1 -4.38%
Cc1cc(C)cc(OCC(=O)N(Cc2ccc(Cl)cc2)C2CCS(=O)(=O)C2)c1 (stereo not drawn) -18.2%
Cc1nc(N2CCOCC2)c2c(C(=O)N(C)c3ccccc3)c(C)oc2n1 -6%
CC(C)Cc1nn2c(=O)cc(COC(=O)c3cccc(NS(C)(=O)=O)c3)nc2s1 -10.5%
O=C(CCCCCn1c(=O)[nH]c2ccccc2c1=O)N1CCN(c2ccc(Cl)cc2)CC1 -11.8%

Reference: PubChem BioAssay AID1346428 (National Center for Advancing Translational Sciences (NCATS), 2018)
